This is one part of the list.
How the values were obtained:
Experiment in all cases: glycan array binding signal (z-score within array); higher = stronger binding
Details in all cases: glycan notation: IUPAC condensed, linker removed
[1] = target: GalNAc3S(b1-4)[Fuc(a1-3)]GlcNAc
Method in brief: (§1)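 The binding signal is a Z-score computed within each array and averaged over linkers. Arrays of the same protein sequence at different concentrations or buffers were also averaged together. Data originate from 3228 arrays in the Consortium for Functional Glycomics database, kept only where the protein sequence was available.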

GalNAc4S6S(b1-4)GlcNAc = target: GalNAc4S6S(b1-4)GlcNAc
Method in brief: as §1

GalNAc6S(b1-4)GlcNAc = target: GalNAc6S(b1-4)GlcNAc
Method in brief: as §1

Glc(a1-4)Glc = target: Glc(a1-4)Glc
Method in brief: as §1

[2] = target: Glc(a1-4)Glc(a1-4)Glc(a1-4)Glc
Method in brief: as §1

Glc(a1-6)Glc(a1-6)Glc = target: Glc(a1-6)Glc(a1-6)Glc
Method in brief: as §1

[3] = target: Glc(a1-6)Glc(a1-6)Glc(a1-6)Glc
Method in brief: as §1

Glc(b1-4)Glc = target: Glc(b1-4)Glc
Method in brief: as §1

Glc(b1-6)Glc = target: Glc(b1-6)Glc
Method in brief: as §1

GlcA(b1-3)Gal = target: GlcA(b1-3)Gal
Method in brief: as §1

GlcA(b1-3)GlcNAc = target: GlcA(b1-3)GlcNAc
Method in brief: as §1

GlcA(b1-6)Gal = target: GlcA(b1-6)Gal
Method in brief: as §1

[4] = target: GlcA3S(b1-3)Gal(b1-4)GlcNAc(b1-2)Man
Method in brief: as §1

[5] = target: GlcA3S(b1-3)Gal(b1-4)GlcNAc(b1-3)Gal(b1-4)Glc
Method in brief: as §1

[6] = target: GlcNAc(a1-3)Gal(b1-4)GlcNAc
Method in brief: as §1

[7] = target: GlcNAc(a1-4)Gal(b1-3)GlcNAc
Method in brief: as §1

[8] = target: GlcNAc(a1-4)Gal(b1-4)GalNAc
Method in brief: as §1

[9] = target: GlcNAc(a1-4)Gal(b1-4)GlcNAc
Method in brief: as §1

[10] = target: GlcNAc(a1-4)Gal(b1-4)GlcNAc(b1-3)Gal(b1-4)Glc
Method in brief: as §1

[11] = target: GlcNAc(a1-4)Gal(b1-4)GlcNAc(b1-3)Gal(b1-4)GlcNAc
Method in brief: as §1

[12] = target: GlcNAc(a1-4)Gal(b1-4)GlcNAc(b1-3)Gal(b1-4)GlcNAc(b1-3)Gal(b1-4)GlcNAc
Method in brief: as §1

[13] = target: GlcNAc(a1-4)Gal(b1-4)GlcNAc(b1-3)Gal(b1-4)[Fuc(a1-3)]GlcNAc(b1-3)Gal(b1-4)[Fuc(a1-3)]GlcNAc
Method in brief: as §1

[14] = target: GlcNAc(a1-6)Gal(b1-4)GlcNAc
Method in brief: as §1

[15] = target: GlcNAc(b1-2)Gal(b1-3)GalNAc
Method in brief: as §1

[16] = target: GlcNAc(b1-2)Man(a1-3)[GlcNAc(b1-2)Man(a1-6)]Man(b1-4)GlcNAc(b1-4)GlcNAc
Method in brief: as §1

[17] = target: GlcNAc(b1-2)Man(a1-3)[GlcNAc(b1-2)Man(a1-6)]Man(b1-4)GlcNAc(b1-4)[Fuc(a1-6)]GlcNAc
Method in brief: as §1

[18] = target: GlcNAc(b1-2)Man(a1-3)[GlcNAc(b1-4)][GlcNAc(b1-2)Man(a1-6)]Man(b1-4)GlcNAc(b1-4)GlcNAc
Method in brief: as §1

[19] = target: GlcNAc(b1-2)Man(a1-3)[GlcNAc(b1-4)][GlcNAc(b1-2)Man(a1-6)]Man(b1-4)GlcNAc(b1-4)[Fuc(a1-6)]GlcNAc
Method in brief: as §1

[20] = target: GlcNAc(b1-2)[GlcNAc(b1-4)]Man(a1-3)[GlcNAc(b1-2)Man(a1-6)]Man(b1-4)GlcNAc(b1-4)GlcNAc
Method in brief: as §1

[21] = target: GlcNAc(b1-2)[GlcNAc(b1-4)]Man(a1-3)[GlcNAc(b1-4)][GlcNAc(b1-2)Man(a1-6)]Man(b1-4)GlcNAc(b1-4)GlcNAc
Method in brief: as §1

[22] = target: GlcNAc(b1-2)[GlcNAc(b1-4)]Man(a1-3)[GlcNAc(b1-4)][GlcNAc(b1-2)[GlcNAc(b1-6)]Man(a1-6)]Man(b1-4)GlcNAc(b1-4)GlcNAc
Method in brief: as §1

[23] = target: GlcNAc(b1-2)[GlcNAc(b1-4)]Man(a1-3)[GlcNAc(b1-4)][GlcNAc(b1-2)[GlcNAc(b1-6)]Man(a1-6)]Man(b1-4)GlcNAc(b1-4)[Fuc(a1-6)]GlcNAc
Method in brief: as §1

[24] = target: GlcNAc(b1-2)[GlcNAc(b1-6)]Man(a1-6)[GlcNAc(b1-2)Man(a1-3)]Man(b1-4)GlcNAc(b1-4)GlcNAc
Method in brief: as §1

[25] = target: GlcNAc(b1-2)[GlcNAc(b1-6)]Man(a1-6)[GlcNAc(b1-2)Man(a1-3)]Man(b1-4)GlcNAc(b1-4)[Fuc(a1-6)]GlcNAc
Method in brief: as §1

[26] = target: GlcNAc(b1-2)[GlcNAc(b1-6)]Man(a1-6)[GlcNAc(b1-4)][GlcNAc(b1-2)Man(a1-3)]Man(b1-4)GlcNAc(b1-4)GlcNAc
Method in brief: as §1

GlcNAc(b1-3)Fuc = target: GlcNAc(b1-3)Fuc
Method in brief: as §1

GlcNAc(b1-3)Gal = target: GlcNAc(b1-3)Gal
Method in brief: as §1

[27] = target: GlcNAc(b1-3)Gal(b1-3)GalNAc
Method in brief: as §1

B1: PX14343B-bfa-546-20-546 (Bacteroides fragilis) (protein)
chain: CDLERYPLTDLSEETFWNSESNAELALTSLYRGSLTDGVEYNPSDWWSYHGMIMMEHLSDNAFDRRGENNPFFKISSGNLTADNAFIKRYWETSYKRIGYCNRFLVGIQNSSESEKKTRMIAEARFLRATQYFYLASYFKNVPLVENVLTGEEANNVTKTSQADILKWCVTEFTAAAADLPRFSAIPAGEAGRACKQAALAFLGRTCMLQKDWKSGAKAFHDIMELGDNAINANYQELFYPSTGTSNKENIFYIQYLENYLGTGLPQHALSAKDGGWSLVNPAADLYESYEFKDGTPFSYDDPRYDPSNLGKDRDPRLDYTIYYNGAIFMGTEYKMSPDYSAAKKEKLDYTSEASRTGFMMRKYFEESTPINDVQSANGLTPVIRYAEVLLGYLECLVEDNQTITQGILDETINAVRGRASVNMPPVTEVTPAKLREIVRHERRIELAMEGIRYWDIMRWGIAHEVLSQKIWGAPYPGSTQYATTTKEVDPTGNYRWYVGKRAFRNPTDYTWPIPQSEQNINPNLRD
glycan array binding signal (z-score) [1]: -0.136
glycan array binding signal (z-score) (GalNAc4S6S(b1-4)GlcNAc): -0.125
glycan array binding signal (z-score) (GalNAc6S(b1-4)GlcNAc): 10.1
glycan array binding signal (z-score) (Glc(a1-4)Glc): -0.122
glycan array binding signal (z-score) [2]: -0.109
glycan array binding signal (z-score) (Glc(a1-6)Glc(a1-6)Glc): -0.131
glycan array binding signal (z-score) [3]: -0.101
glycan array binding signal (z-score) (Glc(b1-4)Glc): -0.13
glycan array binding signal (z-score) (Glc(b1-6)Glc): -0.118
glycan array binding signal (z-score) (GlcA(b1-3)Gal): -0.111
glycan array binding signal (z-score) (GlcA(b1-3)GlcNAc): -0.11
glycan array binding signal (z-score) (GlcA(b1-6)Gal): -0.118
glycan array binding signal (z-score) [4]: -0.131
glycan array binding signal (z-score) [5]: -0.122
glycan array binding signal (z-score) [6]: -0.12
glycan array binding signal (z-score) [7]: -0.128
glycan array binding signal (z-score) [8]: -0.121
glycan array binding signal (z-score) [9]: -0.123
glycan array binding signal (z-score) [10]: -0.125
glycan array binding signal (z-score) [11]: -0.115
glycan array binding signal (z-score) [12]: -0.128
glycan array binding signal (z-score) [13]: -0.102
glycan array binding signal (z-score) [14]: -0.106
glycan array binding signal (z-score) [15]: -0.112
glycan array binding signal (z-score) [16]: -0.123
glycan array binding signal (z-score) [17]: -0.117
glycan array binding signal (z-score) [18]: -0.127
glycan array binding signal (z-score) [19]: -0.122
glycan array binding signal (z-score) [20]: -0.125
glycan array binding signal (z-score) [21]: -0.124
glycan array binding signal (z-score) [22]: -0.13
glycan array binding signal (z-score) [23]: -0.13
glycan array binding signal (z-score) [24]: -0.117
glycan array binding signal (z-score) [25]: -0.122
glycan array binding signal (z-score) [26]: -0.106
glycan array binding signal (z-score) (GlcNAc(b1-3)Fuc): -0.12
glycan array binding signal (z-score) (GlcNAc(b1-3)Gal): -0.132
glycan array binding signal (z-score) [27]: -0.115
